Data from PubChem BioAssay AID360 (National Center for Advancing Translational Sciences (NCATS), 2006).
In all, about 48,000 compounds went through this assay and about 550 (1.1%) were called active. Inconclusive results (about 4%) are left out. Rule as the data show it: active = potency below about 15 µM; inconclusive = mostly about 16 µM to 33 µM; inactive = weaker than that. This is one part of the list.

biological target: Lysosomal acid glucosylceramidase (Homo sapiens) (UniProt P04062); assay: Glucocerebrosidase; settings: purified enzyme, resorufin glucoside fluorescence (screen aimed at inhibitors), 20 min;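 also: the screen sought inhibitors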
Chain of UniProt P04062 (P04062 whole entry, looked up): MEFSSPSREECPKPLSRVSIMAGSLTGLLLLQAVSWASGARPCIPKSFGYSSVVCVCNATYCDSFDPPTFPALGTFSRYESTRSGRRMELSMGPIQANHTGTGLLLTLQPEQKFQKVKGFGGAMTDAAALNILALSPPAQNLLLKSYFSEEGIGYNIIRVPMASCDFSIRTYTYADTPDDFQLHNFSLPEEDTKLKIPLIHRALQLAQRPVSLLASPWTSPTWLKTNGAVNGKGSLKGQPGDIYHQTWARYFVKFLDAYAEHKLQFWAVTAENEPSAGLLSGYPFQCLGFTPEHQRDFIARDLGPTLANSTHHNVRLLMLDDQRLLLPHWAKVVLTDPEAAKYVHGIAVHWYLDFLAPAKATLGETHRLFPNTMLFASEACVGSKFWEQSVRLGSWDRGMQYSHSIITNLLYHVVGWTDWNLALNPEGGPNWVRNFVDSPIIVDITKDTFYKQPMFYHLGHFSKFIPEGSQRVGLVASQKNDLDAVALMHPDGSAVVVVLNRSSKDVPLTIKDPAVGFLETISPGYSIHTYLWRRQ
Method in brief: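 Wild-type enzyme at 0.2 nM final in 50mM citric acid/KH2PO4, 10mM sodium taurocholate, 0.01% tween-20, pH 5.9, with resorufin beta-D-glucopyranoside at 30 uM final. Compounds titrated, 20 min at RT, red fluorescence read; AC50 from titration.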
Potency is read from the fitted curve at half-maximal effect.

Potency, inactive:
Cc1csc(C(C#N)C(=O)c2ccc(S(=O)(=O)N3CCCC3)cc2)n1 (configuration not stated) > 76.9 µM
COc1ccccc1C(=O)NCCCN1CCCC1=O > 76.9 µM
COc1cc(C(=O)Nc2c(C)cc(C)cc2C)c(-n2cnnn2)cc1OC > 76.9 µM
O=C(NCc1ccc(Cl)cc1)c1noc2c1CCCCC2 > 76.9 µM
CC(=O)N=C1SC2CS(=O)(=O)CC2N1c1cccc(Cl)c1Cl (configuration not stated) > 76.9 µM
Cc1ccc(S(=O)(=O)N2CCN(S(=O)(=O)N3CCCCC3)CC2)cc1 > 76.9 µM
Cc1ccc(NC(=O)Nc2ccc(F)cc2)nc1 > 76.9 µM
Cc1ccc(OCc2nnc(NC(=O)Cc3cccs3)s2)cc1 > 76.9 µM
CCOC(=O)NC1(C(F)(F)F)C(=O)NC(C)=C1C(=O)OC (configuration not stated) > 76.9 µM
NC(=O)CCS(=O)(=O)CCN1CCCCC1 > 76.9 µM
CCOc1ccc(C(C)=O)cc1CSc1nnc(-c2ccoc2C)n1N > 76.9 µM
CC(=O)c1cccc(NC(=O)c2cc(-c3ccc(F)cc3)on2)c1 > 76.9 µM
COCCn1nnnc1C(c1cccc(OC)c1OC)N1CCN(C2CCCCC2)CC1 (configuration not stated) > 76.9 µM
CC1CCCC(C(=O)OCc2ccccc2)N1 (configuration not stated) > 76.9 µM
Cc1onc(-c2ccccc2Cl)c1C(=O)OCC(=O)c1ccc2c(c1)OCCO2 > 76.9 µM
CCN(CC(=O)N1CCN(C)CC1)S(=O)(=O)c1ccc(Cl)cc1 > 76.9 µM
CC1CN(Cc2nc3c(c(=O)n(C)c(=O)n3C)n2CC(=O)c2ccccc2)CC(C)O1 (configuration not stated) > 76.9 µM
CCS(=O)(=O)N1CCC(C(=O)N2CCc3ccccc3C2)CC1 > 76.9 µM
Cc1ccc(C(=O)Nc2ccc3c(c2)OCO3)cc1S(=O)(=O)N1CCCC1 > 76.9 µM
Cc1nc2ccccc2c(=O)n1/N=C/c1ccccn1 > 76.9 µM
Cc1cc(C)c2ccc(C)[n+]([O-])c2c1O > 76.9 µM
CCOC(=O)c1c(C#N)c(SCC(=O)Nc2ccc(OC)cc2)nc2c1CN(CC)CC2 > 76.9 µM
CCC(C)(C)NC(=O)C(c1cccn1C)N(C(=O)Cn1nnc2ccccc21)c1ccc(OC)cc1 (configuration not stated) > 76.9 µM
COCCn1c(SCC#N)nnc1-c1ccccc1O > 76.9 µM
Cc1cc(C)n2nc(C(=O)OCCOc3ccc(Br)cc3)nc2n1 > 76.9 µM
O=C1CCCC2=C1C(O)(C(F)(F)F)C(=O)N2Cc1ccccc1 (configuration not stated) > 76.9 µM
CCC(C)(C(=O)NC1CCCC1)N(Cc1cccs1)C(C)=O (configuration not stated) > 76.9 µM
COc1ccc(CCNCc2csc3nc4ccccc4n23)cc1OC > 76.9 µM
CC(C)OCCCNc1ncc2c(n1)CC(c1ccc(N(C)C)cc1)CC2=O (configuration not stated) > 76.9 µM
CCn1cc(C(=O)NCc2ccco2)c(=O)c2cc(S(=O)(=O)N3CC(C)CC(C)C3)ccc21 (configuration not stated) > 76.9 µM
Cc1ccc(S(=O)(=O)N(C)c2ccc(NS(C)(=O)=O)cc2)cc1 > 76.9 µM
CN(C)S(=O)(=O)N1CCN(C(=O)N(c2ccccc2)c2ccccc2)CC1 > 76.9 µM
COc1cc(C2C3C(=O)N(c4ccccc4)C(=O)C3ON2c2ccccc2)cc(OC)c1OC (configuration not stated) > 76.9 µM
Cc1cc(C)nc(N2CCCC(C(=O)Nc3ccc4nc(C)c(C)nc4c3)C2)n1 (configuration not stated) > 76.9 µM
c1ccc(CCNc2ncnc3c2cnn3-c2ccccc2)cc1 > 76.9 µM
Cc1ccc(S(=O)(=O)N2CCC(C(=O)N[C@H](C(=O)NCC3CCCO3)C(C)C)CC2)cc1 (some centres not stated) > 76.9 µM
O=C(CSc1nc2ccccc2n1-c1ccccc1)NCC1CCCO1 (configuration not stated) > 76.9 µM
O=C(c1csc2ccccc12)N1CCN(c2ccccn2)CC1 > 76.9 µM
OCC(C#CCN1CCCCC1)NCc1ccccc1 (configuration not stated) > 76.9 µM
COc1ccc(-c2nc(CSCC(=O)N3CCc4ccccc43)c(C)o2)cc1OC > 76.9 µM
CC1CN(C(=O)c2ccncc2)CC(C)O1 (configuration not stated) > 76.9 µM
CCn1cc(C(=O)Nn2cnnc2)c(=O)c2ccc(C)nc21 > 76.9 µM
CCOC(=O)C1(C)NC(c2ccc(N(C)C)cc2)C2C(=O)N(c3ccc(OC)cc3)C(=O)C21 (configuration not stated) > 76.9 µM
O=C(N1CCN(Cc2ccc3c(c2)OCO3)CC1)C12CC3CC(CC(C3)C1)C2 > 76.9 µM
COc1ccc(-c2noc(CSc3ccccc3)n2)cc1OC > 76.9 µM
Cc1nn(-c2ccccc2)c2[nH]c(=O)c(CNc3ccc(N4CCOCC4)cc3)cc12 > 76.9 µM
O=C(Cn1cnc2ccccc2c1=O)Nc1ccc2c(c1)OCCO2 > 76.9 µM
Cc1cc(C)c2c(n1)nn1c(NCCCN(C)C)cc(C)nc21 > 76.9 µM
O=C(Nc1cccc(-n2cnnn2)c1)c1ccco1 > 76.9 µM
Clc1ccc(OCCn2ccnc2)c2ccccc12 > 76.9 µM
Cc1ccc(C(C(=O)NC2CCCC2)N(C(=O)c2csnn2)C2CCCC2)o1 (configuration not stated) > 76.9 µM
O=C(Nc1nc2c(s1)CCCC2)c1cc2n(n1)C(C(F)(F)F)CC(C1CC1)N2 (configuration not stated) > 76.9 µM
O=C(Nc1nnc(-c2ccccc2Cl)o1)c1ccc(S(=O)(=O)N2CCCCCC2)cc1 > 76.9 µM
CCOC(=O)CSc1nc2ccccc2c(=O)n1CCCCCC(=O)NCc1ccco1 > 76.9 µM
O=C(CSc1n[nH]c(-c2cccnc2)n1)Nc1ccnc2ccccc12 > 76.9 µM
CC(=O)c1c(C)nn(CC(O)Cn2c3c(c4cc(C)ccc42)CCCC3=O)c1C (configuration not stated) > 76.9 µM
C/C(CC(O)(/C=N/O)c1ccccc1)=N\O (configuration not stated) > 76.9 µM
